Data on 44 sequences can be found in the supplement of paper PMC11417369.

Some of the results follow.

The test system of this assay is PfHDP1 homeodomain (GST-tagged). Description: gcPBM binding intensity (ln(normalized median fluorescence intensity)); higher = stronger DNA binding. The essentials: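 DNA-binding domains from P. falciparum, fused to GST and produced in E. coli, were put on an Agilent 4 × 180k double-stranded probe array for 1 h in 1× PBS holding 1% milk, 0.2 mg/ml BSA, 0.5% salmon testes DNA and 0.03% Triton X-100. Probes were primer-extended, 36 bp long and drawn from intergenic genomic regions, with negative controls included. After Alexa488 anti-GST antibody detection and a 488 nm scan, binding intensity was set as the highest Masliner-normalised natural-log median intensity across replicate spots of either probe orientation.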
In the case of “TATACACATAGACACACACACAAAAAAAAAAAAAAA [CACACA_site6338]”, the “gcPBM binding intensity (ln)” value was 6.51.

Turning to AAAATTATTTAGTAAGTGCAAAAAAAAAAAAAAAAA, the “gcPBM binding intensity (ln)” value came to 8.72.

On to “AATTTGATTATAAATTGTACATATATATATTAAAAG [XGTACX_site5461]”, for which the “gcPBM binding intensity (ln)” value stood at 6.64.

On to “TAAAAATAAATAAATACATGCACCAAAAATAAATTT [TGCATGCA_site801]”, for which the “gcPBM binding intensity (ln)” value was determined as 8.72.

“AAAAAAAAAAAACATACACACACATATATATATATA [CACACA_site8452]”: the “gcPBM binding intensity (ln)” value is 9.19.

In the case of “ATTGTTAAATATAATACACACGTTTTTAAAAATATA [CACACA_site5239]”, the “gcPBM binding intensity (ln)” value came to 6.57.

Turning to “ATTGCCATTGTTAATGCATGTAACAATTCAGCTCAT [TGCATGCA_site56]”, the “gcPBM binding intensity (ln)” value was determined as 6.31.

Consider “CTTTTGTATATTATATGTACACACAATAAGTTAATA [XGTACX_site1684]”, for which the “gcPBM binding intensity (ln)” value was determined as 6.53.

Turning to “ACATATATTTATATATGTACATATGATATATACATA [XGTACX_site6122]”, the “gcPBM binding intensity (ln)” value was found to be 6.18.

“TACATATAAACAATAACACACACCTAGGTACATGGA [CACACA_site8178]”: the “gcPBM binding intensity (ln)” value worked out at 6.49.

With “AATTAACAAAAACACACACACACACCCACAAAAAAA [CACACA_site517]”, the “gcPBM binding intensity (ln)” value stood at 6.85.

Take “TTTTTGTAAACCTACTTCATAATTATTTATATCTAT [XGTACX_negctrl_site599]”: the “gcPBM binding intensity (ln)” value stood at 6.4.

Regarding “TAAAAATTTGATCAAACACACGTTGCATAAATTATA [CACACA_site6040]”, the “gcPBM binding intensity (ln)” value is 8.2.

As for “AGGCTATAATACCATACACACATTTATAAAATAACA [CACACA_site6990]”, the “gcPBM binding intensity (ln)” value worked out at 6.69.

“TGAAATTAAATATATACACACATATATATTTATATG [CACACA_site3516]”: the “gcPBM binding intensity (ln)” value was determined as 6.39.

As to “AAACAAAAGGAAAACATATATATATTAAATGTATAT [CACACA_negctrl_site1663]”, the “gcPBM binding intensity (ln)” value came out at 6.57.

Turning to “GCAAAATAACAATGTTACACTTATAAAATTGAGGCA [GTGCAC_negctrl_site68]”, the “gcPBM binding intensity (ln)” value was found to be 6.33.

On to “ATTTAGAATGTTCCTACACACCAAATTTAAGGGTGC [CACACA_site5320]”, for which the “gcPBM binding intensity (ln)” value came out at 6.5.

Turning to “ATTACAAATTCTTTCAGTACATATAAAGAAAAAAAT [XGTACX_site7786]”, the “gcPBM binding intensity (ln)” value is 6.59.

For the sequence “ATTTATATTCCAATATGTACATATTTTCGTATAACC [XGTACX_site8507]”, the “gcPBM binding intensity (ln)” value was 6.69.

On to “TTTTTTTTTCTCCATACACACTTGATAAAACTTTTT [CACACA_site4512]”, for which the “gcPBM binding intensity (ln)” value was found to be 6.63.

Consider “TATTTATTAAGACACACACACACACGCACAAAATAA [CACACA_site6254]”, for which the “gcPBM binding intensity (ln)” value came out at 7.39.

Regarding “AGGGTTCATATATTAACACACACATACATATTATAT [CACACA_site8959]”, the “gcPBM binding intensity (ln)” value came out at 6.72.

As for “AGTATTCTAATTTTTAAACACACAAATATAAATAAG [CACACA_site9029]”, the “gcPBM binding intensity (ln)” value came to 6.47.

For the sequence “TATACACATATATATAGTACATATATAATTTACTAT [XGTACX_site1849]”, the “gcPBM binding intensity (ln)” value was found to be 6.63.

As to “ATATATACCTATATTACACACTTCTTATTCTAAGAA [CACACA_site7421]”, the “gcPBM binding intensity (ln)” value is 6.37.

For the sequence “ATTGTTACATAAAATGCACACTTTCAAATATGCTAA [CACACA_site5600]”, the “gcPBM binding intensity (ln)” value was 9.94.

With “TTAAAAAACATTTGAACATGCAATTGTATATGTAGA [TGCATGCA_site334]”, the “gcPBM binding intensity (ln)” value stood at 6.83.

As for “AAATATCAACTCAAATGTACAAATCACAAAAATGTA [XGTACX_site5344]”, the “gcPBM binding intensity (ln)” value was found to be 6.47.

On to “ATATATGATGTATTTGTGCACATATATATATTATTA [GTGCAC_site9471]”, for which the “gcPBM binding intensity (ln)” value was determined as 10.7.

For the sequence “ATATTAAAAAGGAAATGTACGTAATGAAGATCAAGT [XGTACX_site3138]”, the “gcPBM binding intensity (ln)” value turned out to be 7.76.

For “TAAATAAAAAGACACACACACATATTTATATTTATA [CACACA_site7135]”, the “gcPBM binding intensity (ln)” value is 6.84.

For “GAGAAAAATATATACACACACATAAATATATACATA [CACACA_site1895]”, the “gcPBM binding intensity (ln)” value was 6.61.

As for “TAAATTGGTGCAAAGTGTACATATATATCTTTCCTA [XGTACX_site5458]”, the “gcPBM binding intensity (ln)” value was found to be 10.4.

Take “TTCATATATAATTGTACACACAAAAACGACATTGTG [CACACA_site2074]”: the “gcPBM binding intensity (ln)” value stood at 7.05.

For the sequence “GGAAATAAAATTAAATGTACGAAAACTCATTAAATT [XGTACX_site4274]”, the “gcPBM binding intensity (ln)” value was 5.83.

Consider “TAAATATGAGGGAACACACACATGATATATAAATTC [CACACA_site2400]”, for which the “gcPBM binding intensity (ln)” value stood at 6.63.

“TATACTCATGGACACACACACATACACAGACATACA [CACACA_site5024]”: the “gcPBM binding intensity (ln)” value was determined as 6.95.

With “AAACGGGAGAAATAAAAATAAAAATAATAAAACAAA [XGTACX_negctrl_site586]”, the “gcPBM binding intensity (ln)” value was 6.78.

As to “TGAAAGAATAGAATGAGTACTAATTTAAATTACACT [XGTACX_site1120]”, the “gcPBM binding intensity (ln)” value worked out at 6.57.

For “TTGATTTCATTTTAAGTGCATAACTAATATTATATA [GTGCAC_site9713]”, the “gcPBM binding intensity (ln)” value worked out at 9.53.

In the case of “TTCTTTATATATTTTTGTACATATTTATTTTTAGAG [XGTACX_site6757]”, the “gcPBM binding intensity (ln)” value came to 6.91.

As to “ATATACAAAGAAGCAGTGCATATTTTCTTATTTATG [GTGCAC_site9567]”, the “gcPBM binding intensity (ln)” value came to 8.05.

For the sequence “ATTACCAACAGATCTTGTACATATTAAAGCATCTTA [XGTACX_site2361]”, the “gcPBM binding intensity (ln)” value came to 6.42.
